# In all, about 230,000 compounds went through this assay and about 3,600 (1.6%) were called active. The inconclusive results got no clear call from the source; some entries with a clear call stand among them for comparison. The call rests on the fitted dose curve; in most records, active means well fitted inhibition curve with a large enough effect (not every such curve was filed as active); inconclusive means small, poorly fitted or top-dose-only effect, or another doubt; inactive means no such curve, though single readings can be large or run the other way. A potency beside an inconclusive call is a rough fit, not a confirmed value.
# Target: Lysine-specific demethylase 4E (Homo sapiens) (UniProt B2RXH2)
# Sequence of UniProt B2RXH2 (B2RXH2 whole entry, looked up, the tested form may be a part): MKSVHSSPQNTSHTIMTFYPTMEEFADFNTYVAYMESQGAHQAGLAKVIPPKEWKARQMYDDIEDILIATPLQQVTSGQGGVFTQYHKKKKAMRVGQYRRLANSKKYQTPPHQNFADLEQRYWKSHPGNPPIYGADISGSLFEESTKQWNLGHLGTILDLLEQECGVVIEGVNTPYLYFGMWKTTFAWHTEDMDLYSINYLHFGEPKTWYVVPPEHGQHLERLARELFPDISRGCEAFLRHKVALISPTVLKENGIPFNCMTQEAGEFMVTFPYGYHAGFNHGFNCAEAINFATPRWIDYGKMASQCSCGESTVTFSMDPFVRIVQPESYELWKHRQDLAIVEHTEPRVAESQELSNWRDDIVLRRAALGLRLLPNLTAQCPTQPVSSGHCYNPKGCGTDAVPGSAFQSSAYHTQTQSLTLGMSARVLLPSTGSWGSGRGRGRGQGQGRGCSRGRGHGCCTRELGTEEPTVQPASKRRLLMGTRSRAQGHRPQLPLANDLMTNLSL
# Experiment: qHTS Assay for Inhibitors of Human Jumonji Domain Containing 2E (JMJD2E)
# Details: JMJD2E catalytic domain, FDH-coupled NADH fluorescence (FDH is formaldehyde dehydrogenase); series mostly up to 57.1 µM; activity change, negative = inhibition: at the top concentration
# Further: nearly all actives have a fitted effect of over 50% in size.
# Potency means the concentration at half of the fitted maximal effect; tags describe the fitted curve by direction and shape.
# 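Wherever activity change, negative = inhibition is given: 0% = wells with enzyme and -100% = buffer wells without enzyme.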
SMILES,Potency,"activity change, negative = inhibition"
COc1ccccc1N(CC(=O)NCCc1ccccc1)S(C)(=O)=O,"inconclusive: 35.5 µM [inhibitor, single point]",–
O=C(NCCN1CCCC1)c1ccc2c(=O)n(CCc3ccccc3)c(=O)[nH]c2c1,"inconclusive: 28.2 µM [inhibitor, single point]",–
CCn1c(CSCc2ccccc2)n[nH]c1=S,–,inactive: -9.09%
COC(=O)C1=NN(C(=O)c2cccc(Br)c2)C(O)(c2ccc(Cl)cc2)C1 (configuration not stated),"inconclusive: 39.8 µM [inhibitor, single point]",–
Cc1cc2c(C)cc(=O)oc2c2c1NCCC2,"inconclusive: 28.2 µM [inhibitor, partial curve]",–
Cc1cc(Cl)c(OCCN2C(=O)NC(C)(C)C2=O)c(Br)c1,–,inactive: -2.9%
Cc1cc(C)c2ccc(N)nc2c1O,active: 25.1 µM,–
Cc1onc(-c2ccccc2)c1C(=O)NNC(=S)NC(=O)c1ccc(Br)cc1,"inconclusive: 39.8 µM [inhibitor, single point]",–
COc1cccc(OC)c1C(=O)NC(=S)Nc1ccc2oc(-c3ccncc3)nc2c1,"inconclusive: 22.4 µM [inhibitor, single point]",–
CCCCC(=O)NC(=S)NNC(=O)CCc1ccccc1,"inconclusive: 39.8 µM [inhibitor, single point]",–
CCCC1Cc2nc(N3CCCCC3)c(C#N)cc2CO1 (configuration not stated),"inconclusive: 35.5 µM [inhibitor, partial curve]",–
CCOC(=O)C1=C2c3cc(OC)c(OC)cc3CC(C)(C)N2C(=O)C1=O,"inconclusive: 31.6 µM [inhibitor, single point]",–
CCC(=O)Nc1ccc(C=C(C(C)=O)C(C)=O)cc1,"inconclusive: 31.6 µM [inhibitor, single point]",–
O=C(CSc1nc2ccccc2c(=O)n1Cc1ccc(C(=O)NC2CC2)cc1)NCc1ccco1,–,inactive: 2.54%
Cc1cc(=O)oc(C)c1C(=O)Nc1ccc2nsnc2c1,"inconclusive: 25.1 µM [inhibitor, partial curve]",–
O=C(NCc1cccs1)C(=O)NCC1OCCCN1S(=O)(=O)c1cccs1 (configuration not stated),–,inactive: 4.42%
Clc1ccccc1-c1nnc2sc(-c3ccccn3)nn12,"inconclusive: 39.8 µM [inhibitor, single point]",–
Cc1cc([N+](=O)[O-])c2c(c1C)C1C=CCC1C(c1ccccn1)N2 (configuration not stated),"inconclusive: 25.1 µM [inhibitor, single point]",–
CCc1ccc(S(=O)(=O)ON2C(=O)c3ccccc3C2=O)cc1,"inconclusive: 28.2 µM [inhibitor, partial curve]",–
Cc1ccc(-c2n[nH]c(=S)n2/N=C/c2ccncc2)cc1,–,inactive: -4%
CN1CC=C2C(C#N)=C(N)C(C#N)(C#N)[C@H](c3cccs3)[C@H]2C1,"inconclusive: 25.1 µM [inhibitor, partial curve]",–
CCOC(=O)c1sc2nc(N3CCOCC3)c3c(c2c1N)CCCC3,"inconclusive: 31.6 µM [inhibitor, partial curve]",–
CC1=C(C(=O)Nc2ccccc2C)C(c2cccnc2)n2nc(CCCO)nc2N1 (configuration not stated),–,inactive: 6.07%
Cc1cc(C(=O)NN)c2cc(Br)ccc2n1,–,inactive: -10.8%

SMILES,Potency,"activity change, negative = inhibition"
NNc1nc2c(Cl)ccc(Cl)c2s1,"inconclusive: 25.1 µM [inhibitor, single point]",–
CC1CCCN(C2=NC(=O)/C(=C/c3cn(-c4ccccc4)nc3-c3cccc(S(=O)(=O)N(C)C)c3)S2)C1 (configuration not stated),"inconclusive: 4.47 µM [inhibitor, single point]",–
O=C(Nc1ccc(Cl)c(S(=O)(=O)Nc2ccccc2Cl)c1)c1cccs1,–,inactive: -2.68%
C[C@@H](C(=O)Nc1nc2ccccc2s1)N1C(=O)C2CC=CCC2C1=O (some centres not stated),–,inactive: -3.31%
CC1CCCC(CC(=O)O)(CC(=O)O)C1 (configuration not stated),–,inactive: -2.78%
N#Cc1cc(N)ccc1Sc1ccccc1,"inconclusive: 31.6 µM [inhibitor, partial curve]",–
CCc1ccc(OCc2nnc(SCCN3CCOCC3)n2CC)cc1,"inconclusive: 39.8 µM [inhibitor, single point]",–
COc1cccc(-c2nnc(NC(=O)c3ccc(S(=O)(=O)N4CC(C)OC(C)C4)cc3)o2)c1 (configuration not stated),"inconclusive: 25.1 µM [inhibitor, single point]",–
CC(C)(C)OC(=O)NCCCCCC(=O)N/N=C/c1coc2ccccc2c1=O,–,inactive: 2.67%
CC1(C)Cc2c(C#N)c(N3CCCC3)nc(-c3ccco3)c2CO1,"inconclusive: 28.2 µM [inhibitor, partial curve]",–
O=C(NCCCNC(=O)c1cccs1)c1cccs1,"inconclusive: 39.8 µM [inhibitor, single point]",–
CCCC(=O)Nc1ccc(C(=O)NNC(=S)NC(=O)c2ccc(Br)o2)cc1,"inconclusive: 37.7 µM [inhibitor, single point]",–
O=C(CN1CCN(Cc2ccccc2)CC1)Nc1ccccc1-c1ccccc1,–,inactive: -1.26%
CCNC(=S)Nc1ccc(N2CCCCC2)cc1,"inconclusive: 35.5 µM [inhibitor, single point]",–
CCCCOC(=O)C1CN(c2ccccc2)N=C1C(=O)OCC (configuration not stated),–,inactive: 1.19%
CCCN(CCC)C(=O)Cn1c2ccccc2c2nc(=O)cc(C)n21,"inconclusive: 31.6 µM [inhibitor, single point]",–
CNc1cc(OC)c(C(=O)N[C@@H]2CCN(Cc3ccccc3)[C@H]2C)cc1Cl,"inconclusive: 28.2 µM [inhibitor, partial curve]",–
NC1CCN(c2c(F)cc3c(=O)c(C(=O)O)cn(C4CC4)c3c2Cl)C1 (configuration not stated),–,inactive: -0.598%
N#Cc1c(C(F)(F)F)cc(-c2ccco2)nc1SCc1ccncc1,"inconclusive: 28.2 µM [inhibitor, partial curve]",–
CCOc1ccc(NS(=O)(=O)c2ccc3[nH]cc(C(=O)NC(C)CC)c(=O)c3c2)cc1 (configuration not stated),–,inactive: -1.65%
COc1cccc(-c2nn(C)c3sc(C(=O)NCc4ccc(C)cc4)cc23)c1,"inconclusive: 28.2 µM [inhibitor, partial curve]",–
Cc1ccc(C(=O)CSc2nc3ccccc3c(=O)[nH]2)cc1C,"inconclusive: 35.5 µM [inhibitor, single point]",–
O=C(O)c1ccc2c(c1)C(c1ccccc1)OC2=O (configuration not stated),"inconclusive: 28.2 µM [inhibitor, partial curve]",–

# Source: PubChem BioAssay AID2147 (National Center for Advancing Translational Sciences (NCATS), 2009)
